From PubChem BioAssay AID493208 (National Center for Advancing Translational Sciences (NCATS), 2011)
In all, about 44,000 compounds went through this assay and about 340 (0.77%) were called active. Roughly 5% stayed inconclusive and do not appear here. Calls follow the shape of the dose curve; as a rule, active = well fitted inhibition curve with a large enough effect; inconclusive = small, poorly fitted or top-dose-only effect; inactive = flat fitted curve, though single readings scatter. This is one part of the list.

Test: Acumen qHTS Assay for Inhibitors of the mTORC1 Signaling Pathway in MEF (Tsc2-/-, p53-/-) Cells: Sytravon;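 also: plate controls were DMSO for no effect and rapamycin for full effect; nearly all actives have a fitted effect of over 50% in size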
Details: phospho-rpS6 immunofluorescence/PI, 24 h; series mostly up to 38.3 µM; activity change, negative = inhibition: at the top concentration
Outline: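 Tsc2-/-, p53-/- MEFs (empty-vector stable line) in DMEM + 10% FBS were treated with compounds 24 h at 37 degree Celsius, fixed, and immunostained for phospho-rpS6 (Alexa-488) with propidium iodide counterstain. Laser-scanning cytometry gave % positive cells, normalized against 7.5 nM rapamycin and DMSO.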

Activity change, negative = inhibition, inactive:
CC(C)c1ccc(NC(=O)CSC2=Nc3ccccc3C3=NC(CCC(=O)NC4CCCCC4)C(=O)N23)cc1 (stereo unspecified) 1.82%, COc1ccc2c(c1)CCc1c(C(=O)Nc3cc(OC)c(Cl)cc3OC)noc1-2 -2.98%, COC(=O)c1cc(Nc2nc3ccccc3nc2NS(=O)(=O)c2ccc(C)cc2)ccc1Cl -0.861%, Cc1cccc(Nc2ncnc3onc(-c4ccc(Cl)cc4)c23)c1C 2.61%, Cc1ccc(-n2c(=O)c3cccnc3n2CC(=O)NCc2ccc(Cl)cc2)cc1 0.27%, Cc1ccc2oc3c(c(=O)c2c1)C(c1ccc(O)cc1)N(CCCN(C)C)C3=O (stereo unspecified) -13.2%, COc1ccc(C(=O)Nc2cccc(C(=O)OCc3cc(=O)n4nc(C5CC5)sc4n3)c2)cc1 0%, Cc1cc(F)ccc1NC(=O)C(c1ccccc1)N1Cc2ccccc2C1=O (stereo unspecified) -2.89%, Nc1c(C(=O)Nc2ccc(F)cc2)sc2nc(-c3cccs3)cc(C(F)(F)F)c12 -27.3%, COC(=O)c1ccc([C@@H]2Nc3c(OC)ccc(C)c3[C@@H]3C=CC[C@@H]32)cc1 6.23%, CCn1c2ccccc2c2cc(CN3CCN(Cc4ccc(Br)cc4)CC3)ccc21 -0.974%, CC1N=C2c3ccccc3N=C(SCC(=O)NCCc3ccc(Cl)cc3)N2C1=O (stereo unspecified) 13.5%, O=C(CCS(=O)(=O)c1cc2c(cc1Cl)NC(=O)CO2)NCc1ccc(Cl)cc1 6.41%, O=c1cc(-c2ccccc2)c2ccc3c(c2o1)CN(Cc1cccc(Cl)c1)CO3 -19.7%, CCOc1ccc(CC(=O)Nc2cccc(-c3nc4cccnc4s3)c2C)cc1 -14.9%, Cc1ccccc1NC(=O)Cn1c(=O)n(CCCC(=O)NCc2ccc3c(c2)OCO3)c(=O)c2ccccc21 5.53%, COc1ccc2[nH]cc(CCN=C(NC(=O)c3ccccc3F)Nc3nc(C)cc(C)n3)c2c1 0.419%, Cc1ccc(-c2cn3cccnc3n2)cc1NC(=O)C(C)(C)Oc1ccc(Cl)cc1 3.71%, Cc1c(C(=O)Nc2ccccc2Br)oc2ccc(S(=O)(=O)N3CCCCCC3)cc12 -10.9%, C=C(C)CSc1nc2sc3c(c2c(=O)n1Cc1ccccc1)CC(C)(CC)OC3 (stereo unspecified) 11.1%, CCC(C)NC(=O)CN1C(=O)c2cccnc2Sc2ccccc21 (stereo unspecified) -3.81%, COc1cccc(NCc2cccn2-c2nnc(N3CCC(C)CC3)s2)c1 0%, COc1ccc(NC(=O)C2CCC(CNS(=O)(=O)c3cccc4nsnc34)CC2)cc1OC (stereo unspecified) -0.112%, CCCOC(=O)c1cccc(Nc2nc(CCC)cc(=O)[nH]2)c1 -2.52%, CCOC(=O)Cn1c(=N)n(Cc2ccc(C(C)(C)C)cc2)c2ccccc21 16.5%, COc1ccc(C(=O)n2nc(N)c3cc4ccc(C)cc4nc32)cc1OC -0.727%, COCCNC(=O)CCCn1c(SCC(=O)Nc2ccc(F)cc2)nc2c(sc3ccccc32)c1=O -2.75%, Cc1nc2cc(-c3ccccc3)nn2c(C)c1CCC(=O)N1CCN(c2ccc(F)cc2)CC1 -11.7%, COC(=O)c1cc2oc(C)cc2n1Cc1ccccc1Cl -16.8%, COc1ccccc1C1NC(=O)c2n[nH]c(-c3cccs3)c21 (stereo unspecified) -11.9%, CC1CCN(C(=O)c2c(NC(=O)c3ccccc3Cl)sc3c2CCC(C(C)(C)C)C3)CC1 (stereo unspecified) 3.8%, Cc1cc2nc(-c3ccc(OCc4ccccc4C)cc3)cc(C(F)(F)F)n2n1 2.48%, COc1cc(C2CC(=O)N(Cc3cccc(F)c3)c3ccccc3S2)cc(OC)c1OC (stereo unspecified) 4.55%, Cc1cc(C)cc(-n2ccnc2SCC(=O)Nc2cccc3ccccc23)c1 -10.2%, CNC(=O)C1CCC(Cn2c(=O)c3sccc3n(Cc3cc(C)ccc3C)c2=O)CC1 (stereo unspecified) -8.9%, Cc1ccccc1-c1nc(CN2CCCC(C(=O)NCc3ccc(Cl)cc3)C2)c(C)o1 (stereo unspecified) 2.82%, COc1ccc(N2C(=O)NC(NS(=O)(=O)c3ccc(Cl)cc3)(C(F)(F)F)C2=O)cc1 (stereo unspecified) 0.707%, CCc1ccc(S(=O)(=O)c2cn(CC(=O)Nc3ccc(F)c(Cl)c3)c3ccccc3c2=O)cc1 1.12%, CCN(C(=O)Cn1c(C(=O)OC)cc2sc(Cl)cc21)c1cccc(C)c1 -0.634%, COc1ccc([N+](=O)[O-])cc1NC(c1nnc(-c2ccccc2)o1)c1ccccc1F (stereo unspecified) -23.4%, CSc1nc(NCCOC(C)=O)c(C#N)c(-c2ccc(C(C)(C)C)cc2)n1 -4.59%, COc1ccc(C2C(=O)N(C3CCCCC3)CC(=O)N2CCc2ccc(C)cc2)cc1OC (stereo unspecified) -1.86%, Cc1ccc2nc(CN3CCN(C(=O)Nc4ccc(F)cc4)CC3)oc2c1 0%, COc1ccc(NC(=O)CCc2c(C)nc3c(c2C)c(=O)n(C)c(=O)n3C)c(OC)c1 -3.38%, CCc1ccccc1NC(=O)Cn1nc2c3cc(F)ccc3n(Cc3cccc(C)c3)cc-2c1=O -4.34%, O=C(COc1ccccc1F)Nc1ccc2nc(SCC(=O)N3CCc4ccccc43)sc2c1 -1.83%, CCOC(=O)c1c(NC(=O)c2cc(-c3ccccc3OC)on2)sc(C)c1C -0.243%, CCOc1ccc(-c2cn3c(n2)sc2cc(C(=O)NCCCN4CCCCCC4)ccc23)cc1 3.16%, CCc1ccc2oc(C(=O)NCC(c3ccc(OC)cc3)N3CCCCC3)c(C)c2c1 (stereo unspecified) 1.78%, CC1=C(C(=O)Nc2cccnc2)C(c2ccc(F)cc2)n2nc(-c3cccc(C)c3)nc2N1 (stereo unspecified) -18.1%, Cc1cc(NC(=O)C2CCN(S(=O)(=O)c3c(C)noc3C)CC2)ccc1Br -20%, Cc1cc(C)c2nc(N(Cc3cccnc3)C(=O)CCS(=O)(=O)c3ccccc3)sc2c1 -1.79%, COc1ccc(-c2nc3nc(C)cc(C)n3c2Nc2c(C)cccc2C)cc1 -9.06%, COc1ccccc1CNC(=O)C1(c2cccs2)CCOCC1 2.2%, N#Cc1c[nH]n2c(NC3CCCCC3)c(-c3ccc(F)cc3)nc12 1.59%, Cc1cccc(-n2ccnc2SCC(=O)Nc2cccc3ccccc23)c1 2.38%, Cc1cc(C)cc(OCCSc2nc3ccc(NC(=O)c4ccc5c(c4)OCO5)cc3s2)c1 0.997%, CCc1ccc2[nH]cc(S(=O)(=O)c3ccc(C(C)C)cc3)c(=O)c2c1 -12.3%, O=C(COc1ccccc1Cl)Nc1ccc(OCc2cc(=O)n3ccsc3n2)cc1 3.26%, COc1cccc(Nc2nc3cc(C)ccc3nc2NS(=O)(=O)c2ccc(Cl)cc2)c1 -0.805%, COC(=O)c1ccccc1NC(=O)Cn1cnc2sc(C)c(S(=O)(=O)N3CCC(C)CC3)c2c1=O 1.17%
